The record followed here is US8541419B2, “Isotopically enriched pyrimidin-5-yl acetic acid derivatives as CRTH2 antagonists” (Actimis Pharmaceuticals, Inc., priority 2008, dated 2013).

Structures are written as SMILES. Values joined by “and” are separate entries in the source; they are usually repeats but may differ in a detail not shown here. Identical values can stand only once. The source gives many values for each of these; only a part stands here. Marks after values point to notes of the source that are not given here.

The data set can be described thus: Pharmacokinetics in male Han Wistar rats after simultaneous intravenous administration. It counts as in vivo. The note with it: IV. The source says:
The pharmacokinetics and bioavailability of [4,6-bis([^2H6]dimethylamino)-2-(4-{[4-(trifluoromethyl)benzoyl]amino}benzyl)pyrimidin-5-yl]acetic acid (1) and [4,6-bisdimethylamino)-2-(4-{[4-(trifluoromethyl)benzoyl]amino}benzyl)pyrimidin-5-yl]acetic acid (“the undeuterated analog”) were compared in male Han Wistar rats after intravenous (“IV”) and oral (“PO”) administration.
The following additional acronyms and definitions are used in the study: • AUC0-∞—area under the plasma concentration time curve from time 0 to infinity • AUC0-t—area under the plasma concentration time curve from time 0 to the last quantifiable timepoint • AUMC—area under the first moment curve • CL—total plasma clearance • Cmax—maximum plasma concentration • MRT—mean residence time • PEG—polyethylene glycol • t½—elimination half-life • tmax—time of maximum plasma concentration • Vss—steady-state volume of distribution
Compound 1 (1.02 mg/kg) and the undeuterated analog (1.0 mg/kg) and were administered simultaneously as a solution in PEG 400:ethanol:water (40:10:50) both intravenously and orally (by gavage) to four male rats per dose route. The doses were equivalent on a molar basis. Blood samples were collected serially up to 48 h postdose. […] Noncompartmental pharmacokinetic parameters were calculated and the results compared statistically using paired t-tests, since the simultaneous administration of both compounds allows each rat to serve as its own control.

In the case of `CN(C)c1nc(Cc2ccc(NC(=O)c3ccc(C(F)(F)F)cc3)cc2)nc(N(C)C)c1CC(=O)O` [Undeuterated Analog, reference compound], the “Plasma Concentrations” value (0.03 h, individual rats) is 136,000^a ng/mL and 15,800 ng/mL and 24,600 ng/mL and 13,700 ng/mL and 271,000^a nM and 31,500 nM and 49,100 nM and 27,300 nM; the “Plasma Concentrations” value (0.03 h, mean) was 47,500 ng/mL and 94800 nM; the “Plasma Concentrations” value (0.25 h, individual rats) is 5,890 ng/mL and 7,660 ng/mL and 11,500 ng/mL and 3,430 ng/mL and 11,700 nM and 15,300 nM and 22,900 nM and 6,840 nM; the “Plasma Concentrations” value (0.25 h, mean) is 7,120 ng/mL and 14200 nM; the “Plasma Concentrations” value (0.5 h, individual rats) is 3,430 ng/mL and 4,670 ng/mL and 5,510 ng/mL and 62,900 ng/mL and 6,840 nM and 9,310 nM and 11,000 nM and 125,000 nM; the “Plasma Concentrations” value (0.5 h, mean) was 19,100^a ng/mL and 38100^a nM. The “Plasma Concentrations” value was 1,380 ng/mL and 2,290 ng/mL and 2,080 ng/mL and 681 ng/mL and 2,750 nM and 4,570 nM and 4,150 nM and 1,360 nM (1 h, individual rats); 1,610 ng/mL and 3210 nM (1 h, mean); 901 ng/mL and 741 ng/mL and 128 ng/mL and 1,800 nM and 1,480 nM and 255 nM (2 h, individual rats); 590 ng/mL and 1180 nM (2 h, mean); 175 ng/mL and 365 ng/mL and 170 ng/mL and 46.9 ng/mL and 349 nM and 728 nM and 339 nM and 93.5 nM (4 h, individual rats); 189 ng/mL and 377 nM (4 h, mean). Further, the “Plasma Concentrations” value (6 h, individual rats) is 105 ng/mL and 253 ng/mL and 81.3 ng/mL and 24.2 ng/mL and 209 nM and 504 nM and 162 nM and 48.3 nM; the “Plasma Concentrations” value (6 h, mean) is 116 ng/mL and 231 nM; the “Plasma Concentrations” value (8 h, individual rats) is 128 nM and 345 nM and 176 nM and 23.9 nM; the “Plasma Concentrations” value (8 h, mean) worked out at 168 nM; the “Plasma Concentrations” value (24 h, individual rats) is 23.9 nM and 9.53 nM and 6.56 nM and <1.99 nM; the “Plasma Concentrations” value (24 h, mean) was 10.0 nM. Moreover, the “Plasma Concentrations” value by setting is: (48 h, individual rats) <1.00 ng/mL and 2.01 nM and <1.99 nM; (48 h, mean) 0.253 ng/mL and 0.503 nM.
